Assay [1] concerns the target T1, N6-adenosine-methyltransferase catalytic subunit (Homo sapiens, UniProt Q86U44). Put plainly: Inhibition of METTL3-mediated m6A methylation in human MOLM-13 cells assessed as reduction in mRNA level measured after 24 hrs by LC-MS/MS analysis. It is filed as cell-based.
Assay [2] has as its system MOLM-13. The experiment in a line: Antiproliferative activity against human MOLM-13 cells after 96 hrs by Cell Titer-Glo assay. The assay is classed as functional, cell-based. To be noted: MOLM-13, 96 h.
The target of assay [3] is T1, N6-adenosine-methyltransferase catalytic subunit. Put plainly: Inhibition of METTL3 (unknown origin) using UCUGGACUAAA-biotin and 3H-SAM as substrates preincubated for 5 mins followed by substrate addition incubated for 30 mins by TopCount scintillation counting method.
For assay [4], the system named is MOLM-13. The experiment in a line: Antiproliferative activity against human MOLM-13 cells after 48 hrs by Cell Titer-Glo assay. To be noted: MOLM-13, 48 h. It is filed as functional, cell-based. For orientation: In ATP-based viability assays light output follows the ATP content of the culture.
Assay [5] in a line: Inhibition of METTL16 (unknown origin) using CGAUACAGAGAAGAUUAGCAUACGCAAAUUCGUGAAGCG-biotin and SAM as substrates preincubated for 5 mins followed by substrate addition incubated for 220 mins by TopCount scintillation counting method. Set-up: species or system Homo sapiens.

pIC50: −log10 of the molar value. Where only a bound is given, the exact number is not on record here.

T1 sequence (Q86U44 whole entry): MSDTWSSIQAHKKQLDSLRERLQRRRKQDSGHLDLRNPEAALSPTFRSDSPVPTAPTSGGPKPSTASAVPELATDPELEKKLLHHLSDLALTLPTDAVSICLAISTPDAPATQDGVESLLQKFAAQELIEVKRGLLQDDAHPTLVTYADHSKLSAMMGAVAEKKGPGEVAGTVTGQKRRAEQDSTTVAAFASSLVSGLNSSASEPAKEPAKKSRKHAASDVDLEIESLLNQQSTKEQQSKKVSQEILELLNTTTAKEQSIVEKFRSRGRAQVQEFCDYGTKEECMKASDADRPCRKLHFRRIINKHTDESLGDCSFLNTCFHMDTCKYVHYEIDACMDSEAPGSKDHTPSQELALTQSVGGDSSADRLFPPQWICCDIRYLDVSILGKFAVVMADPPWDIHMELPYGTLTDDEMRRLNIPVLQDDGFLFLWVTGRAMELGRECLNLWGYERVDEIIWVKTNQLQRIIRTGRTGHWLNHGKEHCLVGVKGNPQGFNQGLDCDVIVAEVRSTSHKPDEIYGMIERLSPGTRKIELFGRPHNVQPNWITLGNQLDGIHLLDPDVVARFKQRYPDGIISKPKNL

Regarding `Cn1ccc(-c2cn([C@@H]3C[C@H](CCc4ccc5ccc(N6CCC6)nc5c4)[C@@H](O)C3)c3ncnc(N)c23)n1`, the pIC50 – broadly, the negative decadic logarithm of the IC50, by convention in mol/L – in assay [1] was 6.00; in assay [2] it was above 6.00; in assay [3], above 8.00.

On to `CCNc1ccc2ccc(CC[C@H]3C[C@@H](n4cc(C5CCCC5)c5c(N)ncnc54)[C@H](O)[C@@H]3O)cc2n1`, for which the pIC50 is 6.00 in assay [1], 6.00 in assay [2], 6.00 in assay [4] and above 8.00 in assay [3].

In the case of `CNc1ccc2ccc(OC[C@H]3O[C@@H](n4cc(CC5CC5)c5c(N)ncnc54)[C@@H](F)[C@@H]3O)cc2n1`, the pIC50 in assay [1] was 6.00; in assay [2], above 6.00; in assay [5] it was at most 6.00; in assay [4], 6.00; in assay [3] it was above 8.00.

Take `CCNc1ccc2ccc(OC[C@H]3O[C@@H](n4cc(-c5cn(C)cn5)c5c(N)ncnc54)[C@@H](F)[C@@H]3O)cc2n1`: the negative logarithm of the IC50 (pIC50) is 6.00 in assay [1]; above 6.00 in assay [2]; at most 6.00 in assay [5]; 6.00 in assay [4]; above 8.00 in assay [3].

Regarding `CNc1ccc2ccc(OC[C@H]3O[C@@H](n4cc(Cl)c5c(N)ncnc54)[C@@H](F)[C@@H]3O)cc2n1`, the pIC50 was 6.00 in assay [1], 6.00 in assay [2], 6.00 in assay [4] and above 8.00 in assay [3].

Consider `CNc1ccc2ccc(OC[C@H]3O[C@@H](n4cc(-c5ncco5)c5c(N)ncnc54)[C@@H](F)[C@@H]3O)cc2n1`, for which the pIC50 is above 6.00 in assay [1], above 6.00 in assay [2], above 6.00 in assay [4] and above 8.00 in assay [3].

On to `CCNc1ccc2ccc(OC[C@H]3O[C@@H](n4cc(Cl)c5c(N)ncnc54)[C@@H](F)[C@@H]3O)cc2n1`, for which the negative logarithm of the IC50 (pIC50) in assay [1] was 6.00; in assay [2], 6.00; in assay [4], 6.00; in assay [3], above 8.00.

For the compound `CN(C)c1ccc2ccc(OC[C@H]3O[C@@H](n4ccc5c(N)ncnc54)[C@H](O)[C@@H]3O)cc2n1`, the negative logarithm of the IC50 (pIC50) is at most 5.00 in assay [1], 6.00 in assay [2], at most 5.00 in assay [4] and at least 7.00 in assay [3].

`Nc1ncnc2c1c([C@H]1CCCO1)cn2[C@@H]1O[C@H](COc2ccc3ccc(N4CCC4)nc3c2)[C@@H](O)[C@@H]1F`: the pIC50 is above 6.00 in assay [1], 6.00 in assay [2], 6.00 in assay [4] and above 8.00 in assay [3].

For the compound `CNc1ccc2ccc(OC[C@H]3O[C@@H](n4cc(-c5cc[nH]n5)c5c(N)ncnc54)[C@@H](F)[C@@H]3O)cc2n1`, the negative logarithm of the IC50 (pIC50) was 6.00 in assay [1], above 6.00 in assay [2], above 6.00 in assay [4] and above 8.00 in assay [3].

As to `CNc1ccc2ccc(OC[C@H]3O[C@@H](n4cc(Br)c5c(N)ncnc54)[C@@H](F)[C@@H]3O)cc2n1`, the pIC50 is 6.00 in assay [1], above 6.00 in assay [2], 6.00 in assay [4] and above 8.00 in assay [3].

`CNc1ccc2ccc(OC[C@H]3O[C@@H](n4cc(CC5CCCC5)c5c(N)ncnc54)[C@H](O)[C@@H]3O)cc2n1`: the pIC50 in assay [1] is 6.00; in assay [5], at most 6.00; in assay [4] it was at most 5.00; in assay [3], above 8.00.

Turning to `CN(C)c1ccc2ccc(CC[C@H]3C[C@@H](n4ccc5c(N)ncnc54)[C@H](O)[C@@H]3O)cc2n1`, the pIC50 in assay [1] is at most 5.00; in assay [2], 6.00; in assay [4], at most 5.00; in assay [3], at least 7.00.

Take `Nc1ncnc2c1ccn2[C@@H]1C[C@H](CCc2ccccn2)[C@@H](O)[C@H]1O`: the negative logarithm of the IC50 (pIC50) is at most 5.00 in assay [1], at most 5.00 in assay [2], at most 5.00 in assay [4] and at most 6.00 in assay [3].

`Cn1ccc(-c2cn([C@H]3C[C@H](O)[C@@H](COc4ccc5ccc(NC6CC6)nc5c4)O3)c3ncnc(N)c23)n1`: the pIC50 in assay [1] was 6.00; in assay [2], above 6.00; in assay [4], 6.00; in assay [3] it was above 8.00.

On to `Cn1ccc(-c2cn([C@@H]3O[C@H](COc4ccc5ccc(N6CC(O)C6)nc5c4)[C@@H](O)[C@@H]3F)c3ncnc(N)c23)n1`, for which the pIC50 in assay [1] is 6.00; in assay [2], 6.00; in assay [4], 6.00; in assay [3] it was above 8.00.

As for `CNc1ccc2ccc(CC[C@H]3C[C@@H](n4cc(C5CCCC5)c5c(N)ncnc54)[C@H](O)[C@@H]3O)cc2n1`, the pIC50 in assay [1] was 6.00; in assay [2], above 6.00; in assay [4], 6.00; in assay [3], above 8.00.

As for `CNc1ccc2ccc(OC[C@H]3O[C@@H](n4cc([C@H]5CCCO5)c5c(N)ncnc54)[C@@H](F)[C@@H]3O)cc2n1`, the pIC50 in assay [1] is 6.00; in assay [2], above 6.00; in assay [4], 6.00; in assay [3], above 8.00.

On to `CNc1ccc2ccc(OC[C@H]3O[C@@H](n4cc(-c5cn(C)cn5)c5c(N)ncnc54)[C@@H](F)[C@@H]3O)cc2n1`, for which the pIC50 is 6.00 in assay [1], at most 6.00 in assay [5], 6.00 in assay [4] and above 8.00 in assay [3].

Turning to `CCc1cc(NC)c2ccc(OC[C@H]3O[C@@H](n4cc(-c5ccn(C)n5)c5c(N)ncnc54)[C@@H](F)[C@@H]3O)cc2n1`, the negative-log IC50 (pIC50) in assay [1] is at most 5.00; in assay [4], at most 5.00; in assay [3], above 8.00.

`CNc1ccc2ccc(OC[C@H]3O[C@@H](n4cc(C5CCCC5)c5c(N)ncnc54)C[C@@H]3O)cc2n1`: the negative logarithm of the IC50 (pIC50) in assay [1] is 6.00; in assay [2] it was above 6.00; in assay [4], 6.00; in assay [3], above 8.00.

Take `CNc1ccc2ccc(CC[C@H]3C[C@@H](n4cc(C5CCCCC5)c5c(N)ncnc54)[C@H](O)[C@@H]3O)cc2n1`: the pIC50 in assay [1] was 6.00; in assay [2], above 6.00; in assay [4], 6.00; in assay [3] it was above 8.00.

As for `Cc1ccn(-c2cn([C@@H]3O[C@H](COc4ccc5ccc(N6CCC6)nc5c4)[C@@H](O)[C@@H]3F)c3ncnc(N)c23)n1`, the figures for the pIC50 in assay [1], in assay [2] and in assay [3] were 6.00, 6.00 and above 8.00, respectively.

In the case of `CN(C)c1ccc2ccc(OC[C@H]3O[C@@H](n4cc(C5CCCC5)c5c(N)ncnc54)[C@H](O)[C@@H]3O)cc2n1`, the negative-log IC50 (pIC50) was 6.00 in assay [1], 6.00 in assay [2], 6.00 in assay [4] and above 8.00 in assay [3].

For the compound `Nc1ncnc2c1ccn2[C@@H]1O[C@H](COc2ccc3ccc(N4CCCC4)nc3c2)[C@@H](O)[C@H]1O`, the pIC50 was 6.00 in assay [1], at most 5.00 in assay [4] and at least 7.00 in assay [3].

Regarding `CNc1ccc2ccc(CC[C@H]3C[C@@H](n4cc(C)c5c(N)ncnc54)[C@H](O)[C@@H]3O)cc2n1`, the pIC50 in assay [1] is 6.00; in assay [2] it was above 6.00; in assay [4], 6.00; in assay [3], above 8.00.

As for `CNc1ccc2ccc(OC[C@H]3O[C@@H](n4cc(Cl)c5c(N)ncnc54)C[C@@H]3O)cc2n1`, the negative-log IC50 (pIC50) is 6.00 in assay [1], 6.00 in assay [2], at most 5.00 in assay [4] and above 8.00 in assay [3].

With `CNc1ccc2ccc(CC[C@H]3C[C@@H](n4cc(CO)c5c(N)ncnc54)[C@H](O)[C@@H]3O)cc2n1`, the pIC50 in assay [1] is 6.00; in assay [5] it was at most 6.00; in assay [3] it was above 8.00.

Values taken from ChEMBL document CHEMBL5050857, “Mettl3 modulators” (2021).
